Data taken from the supplement of paper PMC7826260.
Some of the results follow. Each Rep nickase domain was tested in vitro on the same pool of single strands (3 µM enzyme, 1 h, 37 °C); shown is the middle of each 90-letter strand. Uncut reads are compared with the no-enzyme pool on a log2 scale; uncut sequences lie near 0, cut ones below; no hit call is given. Counts are relative to all reads; where an enzyme cuts many sequences, the uncut ones exceed 0.

Experiments:
Test in all cases: uncleaved DNA left, log2 of reads against the no-enzyme library (log2 ratio); higher = less cleavage (more negative = more Rep cleavage of the k-mer); sequences stand for … in CTCGTCCG…ACCGGAGA
[1] = tested on: T1, Rep nickase domain of Muscovy duck circovirus
T1 sequence (residues 1-111 of Rep, tag left off): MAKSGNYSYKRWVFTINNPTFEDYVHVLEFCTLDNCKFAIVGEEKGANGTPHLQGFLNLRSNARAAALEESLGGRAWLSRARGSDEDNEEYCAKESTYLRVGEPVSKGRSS
Experimental: (§1)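 A pool of 90-nt single-stranded DNAs with seven random bases just before the constant AC of the nick site (name = the seven bases) was cut by 3 µM recombinant His6-SUMO-tagged Rep nickase domain (300 nM DNA, 50 mM HEPES pH 8.0, 50 mM NaCl, 1 mM MnCl2, 1 h, 37 °C, three replicates). Uncut DNA was amplified and sequenced.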

[2] = tested on: T2, Rep nickase domain of banana bunchy top virus
T2 sequence (residues 1-94 of Rep, tag left off): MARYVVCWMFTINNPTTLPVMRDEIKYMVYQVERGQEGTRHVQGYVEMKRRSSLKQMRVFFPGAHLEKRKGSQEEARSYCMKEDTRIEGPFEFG
Experimental: as §1

[3] = tested on: T3, Rep nickase domain of cabbage leaf curl virus
T3 sequence (residues 1-116 of Rep, tag left off): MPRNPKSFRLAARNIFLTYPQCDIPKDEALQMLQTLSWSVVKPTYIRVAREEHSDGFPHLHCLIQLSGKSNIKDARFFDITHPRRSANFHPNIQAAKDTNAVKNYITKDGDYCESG
Experimental: as §1

[4] = tested on: T4, Rep nickase domain of chickpea chlorotic dwarf virus
T4 sequence (residues 1-124 of Rep, tag left off): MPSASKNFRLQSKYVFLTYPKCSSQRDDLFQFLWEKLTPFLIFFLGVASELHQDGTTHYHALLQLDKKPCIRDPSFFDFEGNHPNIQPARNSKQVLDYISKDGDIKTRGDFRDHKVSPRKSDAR
Experimental: as §1

[5] = tested on: T5, Rep nickase domain of faba bean necrotic yellows virus
T5 sequence (residues 1-98 of Rep, tag left off): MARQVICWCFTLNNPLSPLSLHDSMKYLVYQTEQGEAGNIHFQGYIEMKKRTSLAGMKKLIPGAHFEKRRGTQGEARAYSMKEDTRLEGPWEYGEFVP
Experimental: as §1

[6] = tested on: T6, Rep nickase domain of maize striate mosaic virus
T6 sequence (residues 1-117 of Rep, tag left off): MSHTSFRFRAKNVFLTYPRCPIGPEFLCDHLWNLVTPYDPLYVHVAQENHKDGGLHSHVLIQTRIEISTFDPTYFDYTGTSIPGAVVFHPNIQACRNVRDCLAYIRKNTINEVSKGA
Experimental: as §1

[7] = tested on: T7, Rep nickase domain of porcine circovirus 2
T7 sequence (residues 2-116 of Rep, tag left off): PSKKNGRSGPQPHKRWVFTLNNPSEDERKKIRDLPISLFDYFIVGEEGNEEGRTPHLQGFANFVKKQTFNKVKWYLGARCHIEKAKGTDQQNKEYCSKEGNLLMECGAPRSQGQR
Experimental: as §1

[8] = tested on: T8, Rep nickase domain of tomato golden mosaic virus
T8 sequence (residues 1-124 of Rep, tag left off): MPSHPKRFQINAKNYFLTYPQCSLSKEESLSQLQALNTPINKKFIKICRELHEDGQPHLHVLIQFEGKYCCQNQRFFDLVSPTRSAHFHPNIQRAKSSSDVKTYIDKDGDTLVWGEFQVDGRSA
Experimental: as §1

[9] = tested on: T9, Rep nickase domain of tomato yellow leaf curl virus
T9 sequence (residues 1-136 of Rep, tag left off): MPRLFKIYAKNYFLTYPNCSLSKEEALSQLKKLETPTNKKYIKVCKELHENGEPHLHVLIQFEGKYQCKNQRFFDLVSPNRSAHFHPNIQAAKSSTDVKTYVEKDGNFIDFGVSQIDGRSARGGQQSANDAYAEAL
Experimental: as §1

[10] = tested on: T10, Rep nickase domain of wheat dwarf virus
T10 sequence (residues 1-137 of Rep, tag left off): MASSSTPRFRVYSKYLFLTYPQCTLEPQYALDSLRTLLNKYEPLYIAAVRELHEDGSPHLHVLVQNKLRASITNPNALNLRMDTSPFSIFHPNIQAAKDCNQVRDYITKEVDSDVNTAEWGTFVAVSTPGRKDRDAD
Experimental: as §1

Sequence	uncleaved DNA left (log2) [1]	uncleaved DNA left (log2) [2]	uncleaved DNA left (log2) [3]	uncleaved DNA left (log2) [4]	uncleaved DNA left (log2) [5]	uncleaved DNA left (log2) [6]	uncleaved DNA left (log2) [7]	uncleaved DNA left (log2) [8]	uncleaved DNA left (log2) [9]	uncleaved DNA left (log2) [10]
GCCACAA	-0.0545	-0.00977	0.0835	0.46	-0.138	0.164	-0.0709	-0.0856	-0.0919	0.0153
AGTTGGT	-0.306	-0.229	-0.216	-0.0582	-0.04	0.0531	-3.04	-0.0423	-0.141	-0.214
AGATAGT	-2.82	-0.0508	-0.317	-1.08	-0.0288	-0.643	-3.44	0.157	0.0613	-0.418
GCTGTGT	-0.0987	-0.111	-0.166	-0.165	-0.11	-0.522	-0.0978	-0.0649	0.00562	-0.133
GCACCTG	-0.0853	-0.0356	-0.119	0.229	-0.0761	0.322	-0.017	-0.0211	-0.186	0.0488
CTACTCA	0.0637	0.124	-0.00676	-1.99	0.0375	-0.464	-0.124	0.00892	0.102	0.0823
CCTGACC	-0.0232	0.0026	-0.141	0.448	-0.00462	0.79	0.00847	0.0102	-0.206	-0.11
TTGAAGC	0.0879	0.0707	-0.224	-0.54	-0.0127	-1.08	0.23	-0.0696	0.0835	-0.0226
TAGTATA	-0.301	-0.456	-0.198	-2.32	-1.08	0.176	-3.21	0.0826	-0.00187	0.0629
TCTACCG	-0.0892	-0.0725	-0.946	-1.78	-0.0297	-1.1	0.00934	-0.104	-0.0779	-0.121
GATTTAC	-0.00999	-0.0778	0.0573	-0.0641	-0.0609	0.975	-0.124	-0.11	0.0486	-0.0457
CCTACGC	0.00994	0.0423	-0.00387	-0.91	-0.0587	-0.658	0.0735	-0.0346	-0.0543	-0.0214
CCCAACC	-0.234	-0.00923	-0.207	-1.42	0.00755	-0.727	-0.8	-0.0837	-0.072	-0.11
AGAATTG	0.0409	-0.00781	-0.181	0.0438	-0.131	-0.213	0.0657	-0.0163	-0.0478	-0.0126
TCTCAGC	0.0499	-0.0139	-0.132	-0.593	0.0618	-0.827	0.239	0.0373	0.0673	-0.0376
TAGAAAA	0.139	0.113	0.2	-0.478	0.103	-0.232	-0.758	0.0467	0.177	0.227
TCTGGAC	0.0178	0.0896	0.334	1.05	-0.00475	1.23	0.0603	-0.00762	0.0245	0.0649
ACTCCTA	-0.0128	-0.0414	-0.288	-1.08	-0.0812	-0.503	-0.205	0.0387	-0.0965	-0.00808
CGGCACG	-0.117	-0.21	-0.652	-0.47	-0.058	-0.802	-0.00899	-0.0772	-0.131	-0.224
GTACAAC	-0.00762	0.174	0.371	0.524	0.015	1.6	0.131	0.0554	0.188	0.114
CACGGGG	0.0661	0.0528	0.547	1.06	0.106	1.11	0.179	0.0424	0.0208	0.0252
TCCTTCA	-0.228	-0.0811	-0.0544	-1.04	-0.0189	-0.473	-0.23	-0.099	-0.0322	0.0955
ATGATGA	0.0946	-0.0466	0.109	0.217	0.133	-0.44	0.129	0.0557	0.034	-0.0512
GGTATTC	-0.102	0.0418	0.464	1.22	-0.0469	1.79	0.0736	-0.0512	0.00835	0.083
CGCTGTA	-0.0383	-0.0125	-0.0851	0.142	-0.129	0.69	-0.247	-0.211	-0.185	0.0913
AAAGTCC	0.0883	0.0878	-0.000181	-0.562	0.1	-0.302	-0.0244	0.057	0.0625	0.107
GGCCTCA	0.186	0.259	0.5	0.824	0.0588	1.36	0.223	0.161	0.225	0.221
TCACGGC	0.134	0.0113	0.0581	-0.0182	-0.0567	-0.51	0.0764	-0.0647	-0.027	-0.071
GTATTCG	-0.0447	0.0694	-0.723	-0.429	0.0534	-0.805	0.11	-0.0692	0.0712	0.00517
